System: multiple insects
Experiment: Insecticidal activity of oxymatrine
Assay type: in vivo
Conditions: used at 500 to 6,000 ppm

`O=C1CCC[C@@H]2[C@H]3CCC[N+]4([O-])CCC[C@@H](CN12)[C@@H]34` (stereo partly shown) [Oxymatrine, oxymatrine] was tested. Which “insecticidal control and plant phytotoxicity” value did it give?
Its value is “superior insecticidal control was demonstrated without plant phytotoxicity”.

Source: US20250248397A1, “CHITOSAN ENCAPSULATION OF ABSOLUTE (ESSENTIAL) ROSEMARY, PEPPERMINT, AND COTTONSEED OILS” (GroPro Corporation, priority 2024, published 2025)
